# Source: PubChem BioAssay AID485344 (National Center for Advancing Translational Sciences (NCATS), 2010)
# The whole screen tested about 340,000 compounds, of which about 6,900 (2%) were called active. Rule as the data show it: active = inhibition above about 30%; inactive = below that, where a call was filed. The list shows a part of the results, in another mix than the full data. Where no call is shown, the source filed none.
# Biological target: D(2) dopamine receptor (Homo sapiens) (UniProt P14416)
# UniProt P14416, sequence (P14416 whole entry, looked up): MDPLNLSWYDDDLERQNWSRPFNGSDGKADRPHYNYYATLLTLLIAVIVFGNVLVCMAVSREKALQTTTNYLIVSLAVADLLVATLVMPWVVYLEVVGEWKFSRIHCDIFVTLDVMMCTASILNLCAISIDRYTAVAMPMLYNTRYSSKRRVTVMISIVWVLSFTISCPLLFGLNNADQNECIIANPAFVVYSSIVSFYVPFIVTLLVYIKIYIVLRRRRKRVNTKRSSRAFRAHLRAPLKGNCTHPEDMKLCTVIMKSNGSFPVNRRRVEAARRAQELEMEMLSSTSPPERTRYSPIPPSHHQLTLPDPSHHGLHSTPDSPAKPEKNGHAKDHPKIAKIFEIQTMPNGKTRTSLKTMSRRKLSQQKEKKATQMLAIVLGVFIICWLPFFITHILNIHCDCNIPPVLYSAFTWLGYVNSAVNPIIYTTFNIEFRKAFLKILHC
# Test: HTS Assay for Allosteric Antagonists of the Human D2 Dopamine Receptor: Primary Screen for Antagonists; also: 0% is about no effect
# Settings: HEK293 TREx D2 cells, calcium flux, dopamine EC80; at 10 µM; stronger effect = higher value
# Method in brief: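 Compounds are added to dye-loaded, induced HEK293 T-REx cells coupled to calcium release via D2; after a 3 min kinetic read an EC80 dopamine stimulus is given and fluorescence is recorded for 3 more min.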
row,Structure (SMILES),inhibition
1,CCCN1C(=O)c2[nH]nc(-c3ccc(F)cc3)c2C1c1ccc(O)c(OCC)c1 (stereo not given),16.1%
2,Cc1cc2c(n1-c1ccc(C(=O)NCc3cccc(Br)c3)cc1)CCC(C)C2 (stereo not given),22.1%
3,Cc1ccccc1Cn1c(=O)n(CCCCC(=O)NCc2ccc3c(c2)OCO3)c(=O)c2ccccc21,-10.3%
4,CCOC(=O)c1c(-c2ccccc2)oc2ccc(OCc3ccc(C)cc3)cc12,4.32%
5,Cc1ccc(N2C(=O)CSC23C(=O)Nc2ccccc23)cc1F (stereo not given),3.6%
6,Cc1cccc(-c2nc3c4ccccc4n(CC(=O)Nc4cc(F)ccc4F)c(=O)n3n2)c1,22%
7,C=CCn1c(C)cc(C(=O)COC(=O)/C=C/c2cccc(OC)c2)c1C,active: 42%
8,COc1ccc(NC(=O)CCn2nc(-c3ccc(Cl)cc3)c3ccccc3c2=O)cc1,-0.116%
9,O=C(Nc1nnc(N2CCCC2)s1)Nc1cc(F)ccc1F,13.9%
10,Cc1ccc(CSc2nc(N)cc(=O)[nH]2)cc1,active: 30.1%
11,O=C(NCCc1ccccc1)c1c2c(nc3ccccc13)C(=O)N(C1CCCCC1)C2,12.9%
12,Cc1oc(-c2cccc(Cl)c2)nc1CN1CCC(C(=O)NCc2ccc(F)cc2)CC1,-6.08%
13,COc1cccc(CNC(=O)C2CCCN(S(=O)(=O)c3ccc4c(ccn4C)c3)C2)c1OC (stereo not given),-9.17%
14,CCC(=O)N1c2ccc(S(=O)(=O)CCC(=O)NCCC3=CCCCC3)cc2CC1C (stereo not given),active: 30.9%
15,Cc1cc(C(=O)Nc2cccc(C(F)(F)F)c2)c2c(C)nn(-c3cccc(F)c3)c2n1,6.57%
16,Cc1nn2c3c(cnc2c1-c1ccc(F)cc1)C(=O)CC(c1ccccc1)C3 (stereo not given),-2.04%
17,O=C(Cn1c(=O)n(CCCS(=O)(=O)C2CCCCC2)c(=O)c2ccccc21)Nc1ccccc1F,-10.3%
18,CC(=O)Nc1ccc(NC(=O)CC(C)n2ccc(C)n2)cc1 (stereo not given),6.69%
19,CC(CCc1ccccc1)NCC(O)c1cccc([N+](=O)[O-])c1 (stereo not given),active: 58.8%
20,O=S(=O)(NCCc1csc2nc(-c3ccc(F)cc3)nn12)c1ccc2c(c1)OCCO2,-5.25%
21,Cc1cc(C)c(-c2csc(-c3cc4ccccc4oc3=O)n2)cc1C,3.24%
22,Cc1ccc(OCC(=O)N(Cc2ccc(N(C)C)cc2)CC2CCCO2)cc1C (stereo not given),7.28%
23,CCOc1ccc(CNCCN2CCCC2)cc1,active: 74.1%
24,O=C(c1cccc([N+](=O)[O-])c1)N1c2nc(-c3ccco3)nn2C2(CCCCC2)[C@@H]2CCCC[C@@H]21,5.89%

row,Structure (SMILES),inhibition
1,COc1ccc(-c2cc(C(F)(F)F)nc(SCC(=O)N3CCCCC3)n2)cc1,16.3%
2,CCCC(=O)c1cc2c(cc1NC(=O)c1ccccc1F)OCCO2,-17.5%
3,Cc1ccc(CNC(=O)CCCn2c(=O)c3ccccc3n(Cc3ccccc3Cl)c2=O)cc1,2.56%
4,CCCCOc1ccc(NC(=O)c2cc3c(n(-c4ccc(Cl)cc4)c2=O)CCCC3=O)cc1,3.93%
5,COC(=O)[C@@H]1C[C@@H]2CC[C@@H](O)C[C@@H]2N1Cc1ccc(OC)cc1,active: 39.2%
6,Cc1nn(C)c2c1c(-c1ccccc1)cc(=O)n2Cc1ccc(Br)cc1F,21.8%
7,COC(=O)c1ccc(NC(=O)CC2C(=O)N(c3cccc(C)c3)C(=O)N2Cc2ccco2)cc1 (stereo not given),-7.02%
8,Cc1cccc(N2C(=O)C(CC(=O)Nc3ccccc3)N(C3CCCCC3)C2=O)c1 (stereo not given),1.74%
9,COc1cccc(C2/C(=C(\O)c3ccc4c(c3)OCO4)C(=O)C(=O)N2CCN(C)C)c1OC (stereo not given),active: 41%
10,COc1cccc(C(=O)Nc2nc3nc(C)c(Cc4ccccc4)c(=O)n3[nH]2)c1,0.76%
11,CCOC(=O)c1c(C)[nH]c(C)c1S(=O)(=O)N(C)CC(=O)N1CCN(c2cccc(C)c2C)CC1,-1.54%
12,Cc1ccc(C)c(N2CCN(C(=O)CCc3c(C)nn(-c4ccc(N5CCCC5)nn4)c3C)CC2)c1,-2.92%
13,Cc1ccc(C(=O)Nc2c(C)nc3ccccn3c2=O)cc1,-1.31%
14,COc1ccccc1CNC(=O)CSc1nc2nc(C)c(Cc3ccccc3C)c(C)n2n1,5.91%
15,O=C(NCc1ccc(Cl)cc1)C1CCN(C(=O)c2cnn(-c3ccccc3)c2-n2cccc2)CC1,-10.8%
16,O=C(CCCCCn1c(=O)[nH]c2ccsc2c1=O)NCc1ccccc1,5.24%
17,CCOc1ccc(CNC(=O)Cn2nc(N3CCN(c4ccccc4)CC3)ccc2=O)cc1,1.05%
18,Oc1c(C(c2cccc(Br)c2)N2CCCC2)sc2nc(-c3ccco3)nn12 (stereo not given),19%
19,CC1CN(C(=O)CCC(=O)NCCCN2CCN(Cc3ccccc3)CC2)c2cc(Cl)ccc2O1 (stereo not given),active: 37.1%
20,CC(=O)CCc1ccc(OCC(O)CNCCOc2ccc(C)cc2)cc1 (stereo not given),active: 61%
21,CCCS(=O)(=O)c1c(S(=O)(=O)CCC)c2cc(C(C)(C)C)ccn2c1C(=O)c1ccc(C)cc1,-10.1%
22,COc1ccc(Nc2nnc(-c3cc4cc(Cl)ccc4oc3=O)s2)cc1,5.64%
23,CCC(C)NC(=O)c1ccc(Cn2c(=O)c3cccn3c3cccnc32)cc1 (stereo not given),3.38%
24,COc1cccc(CN2C(=O)c3ccccc3C2C(=O)NCCc2ccccc2)c1 (stereo not given),12%

row,Structure (SMILES),inhibition
1,CN(C)S(=O)(=O)c1ccc(NC(=O)CN2CCN(c3ccccn3)CC2)cc1,active: 30.2%
2,CC(C)c1ccc(NC(=O)C2CCCN(S(=O)(=O)c3ccc4[nH]c(=O)oc4c3)C2)cc1 (stereo not given),14.5%
3,CCc1ccccc1NC(=O)c1nc2nc(C)cc(C(F)F)n2n1,0.91%
4,CCN(CC)S(=O)(=O)c1ccc2c(c1)c(=O)c(C(=O)N1CCN(c3ccc(OC)cc3)CC1)cn2C,-7.39%
5,COCCCn1c(=O)c2sccc2n(Cc2cccc(C)c2)c1=O,active: 41.1%
6,Cc1ccc(CNC(=O)CN2N=C(c3ccc(C)cc3)CCC2=O)cc1,9.78%
7,CCCN(CCC)CCCNC(=O)Cn1ncn2c(cc3sc(CC)cc32)c1=O,-22.9%
8,Cn1c(-c2cccc(Br)c2)cnc1NCc1cccc(F)c1,6.36%
9,Cc1cc(C(N)=O)c2ccccc2n1,active: 49.8%
10,Cc1cccc(-c2nnc(SCC(=O)Nc3ccc(C)c(C)c3)o2)c1,5.78%
11,Cc1ccc(/C=C/c2onc(C)c2S(=O)(=O)N2CCC(C(=O)Nc3cccc(C#N)c3)CC2)cc1,-10.3%
12,CCN(CC)CCNC(=O)CN1C(=O)CSc2ccc(S(=O)(=O)N3CCOCC3)cc21,11.9%
13,CCOC(=O)COc1ccc(CC)cc1C(=O)c1ccn2nc(-c3ccc(C)cc3)cc2n1,-28.4%
14,Cc1ccccc1CSc1nc2c([nH]c3ccccc32)c(=O)n1-c1ccccc1,-1.88%
15,CCc1nnc2c(NCc3ccccc3)nc3ccccc3n12,-4.13%
16,CCOc1ccc(-c2cc(NC(=O)Nc3ccccc3Cl)c(C(=O)OC)s2)cc1,3.24%
17,OC(COc1c(F)cc(Br)cc1F)CN1CCc2ccccc2C1 (stereo not given),active: 64.8%
18,Cc1ccc(C(=O)N2CCN(c3ccccc3)CC2)cc1NC(=O)c1nsc2ccccc12,-26.5%
19,N#Cc1c(C(F)(F)F)cc(-c2cccs2)nc1SCC(=O)Nc1cccc(Br)c1,-0.241%
20,Cc1ccc(-c2nnc(Nc3ccc(F)cc3)c3ccccc23)cc1S(=O)(=O)NC(C)C,-3.16%
21,Cc1ccc(CNC(=O)CN2C(=O)C3CCCCN3c3ccc(C(=O)N(C)C)cc32)cc1 (stereo not given),22.8%
22,COc1ccccc1NC(=O)CN1C(=O)C(C)(C)c2ccccc21,-0.535%
23,CC1=C(C(=O)Nc2ccccc2C)C(c2sccc2C)n2ncnc2N1 (stereo not given),2.56%
24,Cc1ccc(S(N)(=O)=O)cc1NC(=O)c1c(-c2c(Cl)cccc2Cl)noc1C,-11.6%

row,Structure (SMILES),inhibition
1,Cc1cccc(CSc2ncc(Cl)c(C(=O)Nc3nnc(C)s3)n2)c1,2.9%
2,OC(COc1ccc(Cl)cc1)CN1CCN(c2cccc(Cl)c2)CC1 (stereo not given),active: 72.7%
3,Cc1ccc2oc(C(=O)NCC(c3ccc(Cl)cc3)N3CCOCC3)c(C)c2c1 (stereo not given),-11.4%
4,O=C(CSc1nnc(COc2ccc(F)cc2)o1)N1CCCCC1,active: 97.1%
5,Cc1ccc(CNC(=O)c2cc3c(=O)n4cccc(C)c4nc3s2)cc1,-4.32%
6,COc1ccc(C2(N3CCN(c4cc(C)ccc4C)CC3)C(=O)c3ccccc3C2=O)cc1,7.52%
7,COc1cccc(CNC(=O)CCC2CCCN(C(=O)c3cc(C4CC4)[nH]n3)C2)c1 (stereo not given),active: 63%
8,N#Cc1cccc(NC(=O)C2CCN(S(=O)(=O)c3ccc4c(c3)CCCN4C(=O)C3CCC3)CC2)c1,-26.2%
9,CCOc1ccccc1NC(=O)CSc1nc2cc(OC)c(OC)cc2c2nc(CCn3c(C)nc4ccccc43)nn12,5.95%
10,CC(C)Sc1nnc(-c2ccc(S(=O)(=O)N3CCOCC3)cc2)n1C,active: 34.9%
11,Cc1ccc(-c2nc(CCNC(=O)C(=O)Nc3ccc(C)c(Cl)c3)cs2)cc1,-7.74%
12,COc1ccccc1C(=O)Nc1ccccc1C(=O)OCc1cc(=O)n2ccsc2n1,-4.69%
13,CCOC(=O)c1sc(NC(=O)c2nc3nc(C)cc(C(F)F)n3n2)c(C(=O)OC(C)C)c1C,13.1%
14,CCCOc1ccc(CNC(=O)CCCN2C(=O)CSc3c2c(C)nn3-c2ccccc2)cc1,1.44%
15,CCOc1ccc(Nc2cc(C)nc3nncn23)cc1,-8.69%
16,Cc1ccccc1NC(=O)Cn1cc(S(=O)(=O)c2ccccc2)c(=O)c2ccccc21,-5.35%
17,COc1ccc(NC(=O)c2cc3c(-c4ccccc4F)nn(C)c3s2)c(OC)c1,-1.1%
18,CCC(C)NC(=O)c1cc(Sc2cccc(Cl)c2)nc2ccccc12 (stereo not given),-23.1%
19,FC(F)(F)c1cccc(N2CCN(c3ncnc4c3nc3n4CCCC3)CC2)c1,-5.55%
20,CCN1CCN(Cc2c(O)ccc3oc(C)c(C(=O)Nc4cccc(Cl)c4C)c23)CC1,-9.98%
21,CCCn1c2ccccc2c2cnn(CC(=O)NCCCN3CCCCC3CC)c(=O)c21 (stereo not given),-14%
22,O=C(Cn1nc(C(F)(F)F)c2c1CCCC2)Nc1cccc(Cl)c1,10.8%
23,CCCN(C(=O)c1cc(S(=O)(=O)N2CCc3ccccc32)cn1C)c1ccc(OCC)cc1,12.2%
